Laboratory results reported in paper PMC12040169 (PLOS Biology, 2025).
Some of the results follow.

Tested on: T1, C. trachomatis L2/434/Bu expressing GFP (CTL2-GFP)
T1 construct: L2/434/Bu GFP intracellular growth in HeLa cells
Set-up: species or system HeLa; C. trachomatis total inclusion area by high-content imaging, normalised to DMSO
Details: total inclusion area; 28.5 h, 10 µM; inhibitor
In short: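 Post-fluorescence-read fixation, DNA staining with Hoechst and high-content imaging; GFP inclusion area and number per well, and nuclei counts, used as proxies for bacterial growth and host viability.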

| Compound | % of control remaining |
| --- | --- |
| N#Cc1nc(COc2cccc(Cl)c2)oc1NCc1ccncc1 [CBK266447] | 124.922 |
| COc1ccc(/C=N/NC(=O)c2ccc(O)cc2O)cc1COc1cc(C)c(Cl)c(C)c1 [CBK263000] | 100.922 |
| O=C(NC1CCN(c2nc3cccnc3s2)CC1)c1ccsc1 [CBK304342] | 58.9276 |
| CC(C)NC(=O)N1CCCC1c1nc(-c2ccc(Cl)cc2)c2ccccn12 (stereo not drawn) [CBK046947] | 87.6406 |
| CC(C)(C)C(=O)NCCN1CCC(O)(c2ccc(F)cc2)CC1 [CBK283262] | 69.5464 |
| CCOC(=O)CN1CCC(Oc2cncc(OCCN3CCOCC3)n2)C1 (stereo not drawn) [CBK084491] | 86.9771 |
| COc1ccc(C(=O)N2CCC(N(C)Cc3ccc(-c4ccc(S(C)(=O)=O)cc4)nc3)CC2)cc1Cl [CBK165991T] | 78.3251 |
| Cc1ccc(S(=O)(=O)N(CC(=O)NC2CC3CCC2C3)c2cc(Cl)cc(Cl)c2)cc1 (stereo not drawn) [CBK263995] | 101.618 |
| Cc1cc(C)cc(NC(=O)C(Cc2ccccc2)C(=O)Nc2cc(C)cc(C)c2)c1 [CBK266165] | 105.517 |
| COc1ccccc1-c1ccc(NC(=O)CCc2nc3ccccc3[nH]2)cc1 [CBK285651] | 104.138 |
| O=C(O)c1ccccc1NC1SC(=O)N(c2ccccc2)C1=O (stereo not drawn) [CBK261078] | 102.065 |
| CCOC(=O)c1cnc(SC)nc1NCCc1c[nH]c2cc(OC)ccc12 [CBK092317] | 85.7513 |
| Cc1ccc2n1CCN(C(=O)c1cccc(-n3cnnc3)c1)C2C(C)C (stereo not drawn) [CBK282444] | 127.241 |
| Cc1cc(S(=O)(=O)N2CCCC2)ccc1OCC(=O)NCc1ccccn1 [CBK270027] | 93.6867 |
| CN1CCN(c2nc(NS(=O)(=O)c3cccc(C(F)(F)F)c3)cc3ccccc23)CC1 [CBK200013C] | 97.4413 |
| COc1ccnc(N2CCN(Cc3cncn3C3CCCCC3)CC2)n1 [CBK306925] | 97.4479 |
| O=C(Cc1ccsc1)N1CCN(c2ncccn2)CC1 [CBK144525] | 99.7622 |
| CC1(NC(=O)CC[N+]23CCN(CC2)CC3)CS(=O)(=O)CC1S(=O)(=O)[O-] (stereo not drawn) [CBK262518] | 53.7375 |
| O=C(Nc1ccc2nc(-c3ccc(-c4nc5ccc(NC(=O)c6cccc7ccccc67)cc5[nH]4)cc3)[nH]c2c1)c1cccc2ccccc12 [CBK261160] | 88.5605 |
| CC(=O)NC(c1nccs1)C1CCN(C(=O)C2CC2C)CC1 (stereo not drawn) [CBK282232] | 84.3429 |
| CCOCCCn1c(SC(C)C#N)nc2ccc(Br)cc2c1=O (stereo not drawn) [CBK306084] | 22.6472 |
